Test results as given in PubChem BioAssay (NCATS).
Where “and” joins values, the source holds several entries; their conditions need not be identical. Identical values can stand only once. The shares of active, inactive and inconclusive entries below differ from those in the screen. For part of these data: Potencies of inconclusive entries are doubtful fits and often do not repeat. Calls of active or inactive are those of the source. Calls follow the shape of the dose curve; as a rule, active = well fitted curve in the direction sought with a large enough effect; inconclusive = small, poorly fitted or top-dose-only effect, or another doubt; inactive = no such curve, though single readings can be large; an effect the other way counts as inactive or inconclusive.

How the values were obtained:
[1] = molecular target: Cytochrome P450 3A7 (Homo sapiens) (UniProt P24462); experiment: Cytochrome P450 family 3 subfamily A member 7 (CYP3A7) small molecule antagonists: luciferase biochemical qHTS assay (AID 1963596); also: nearly all actives have a fitted effect of over 40% in size; also: potency is read from the fitted curve at half-maximal effect; as to activity change, negative = inhibition: % is scaled to controls: 0 for no effect and ±100 for the full control effect
Sequence of UniProt P24462 (P24462 whole entry, looked up): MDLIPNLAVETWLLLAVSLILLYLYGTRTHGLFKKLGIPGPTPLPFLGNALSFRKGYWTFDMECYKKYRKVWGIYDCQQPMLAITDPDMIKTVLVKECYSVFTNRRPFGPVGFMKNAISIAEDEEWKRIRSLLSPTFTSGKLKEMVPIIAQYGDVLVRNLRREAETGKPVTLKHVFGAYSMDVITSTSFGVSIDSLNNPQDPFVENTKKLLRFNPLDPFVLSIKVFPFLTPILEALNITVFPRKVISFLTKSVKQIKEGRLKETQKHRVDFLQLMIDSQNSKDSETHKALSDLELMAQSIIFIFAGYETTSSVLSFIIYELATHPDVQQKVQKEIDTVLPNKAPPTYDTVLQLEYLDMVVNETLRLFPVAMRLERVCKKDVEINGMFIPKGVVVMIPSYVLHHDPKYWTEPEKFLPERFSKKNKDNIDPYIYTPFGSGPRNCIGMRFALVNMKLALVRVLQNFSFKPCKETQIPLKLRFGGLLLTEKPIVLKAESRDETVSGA
Summary of the method: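 Recombinant CYP3A7 P450-Glo luminescent assay: enzyme-proluciferin substrate mix preincubated with compound 10 min at room temperature, reaction started with NADPH regeneration system for 1 h. Luciferin detected by luminescence; ketoconazole as positive control.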

[2] = Viability qHTS for spleen associated tyrosine kinase inhibitor (SYKi) naive MV4-11 cells (AID 1963823); conditions: MV4-11 AML viability, CellTiter-Glo luminescence, 72 h; viability (% of control): at 45 µM (top of the series); also: nearly all actives have a fitted effect of over 40% in size; also: potency is read from the fitted curve at half-maximal effect
Summary of the method: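 CellTiter-Glo luminescence, 10 min room-temperature incubation, gave viability. Cells: naive MV4-11 (500/well), treated 72 hr at 37 C, 5% CO2.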

[3] = Viability qHTS for spleen associated tyrosine kinase inhibitor (SYKi) drug resistant MV4-11 cells (AID 1963824); also: nearly all actives have a fitted effect of over 35% in size; also: potency is read from the fitted curve at half-maximal effect
Summary of the method: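 SYK inhibitor-resistant MV4-11 AML cells, 500 per well, added to predispensed compounds and incubated 72 hr at 37 C, 5% CO2. Viability measured by CellTiter-Glo luminescence after 10 min at room temperature.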

[4] = Cellular viability qHTS for adrenocortical cancer (ACC) cell line NCI-H295R (AID 1963990); conditions: CellTiter-Glo ATP luminescence, 48 h; activity change, negative = viability loss: at 46.1 µM (top of the series); also: nearly all actives have a fitted effect of over 60% in size; also: potency is read from the fitted curve at half-maximal effect;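 as to activity change, negative = viability loss: 0% = DMSO only wells and -100% = full killing with cytotoxic reference compound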
Summary of the method: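 IC50 and maximal efficacy derive from four-parameter logistic modelling of titration curves, with reads scaled between DMSO-only wells (0%) and doxorubicin hydrochloride (100% inhibition). Compounds spanned up to 46 uM over 48 h.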

[5] = Quantitative highthroughput screen to assess conditional lethalithy of NOMO1 cells grown in RPMI1640 with dialyzed fetal bovine serum (RPMI+ds) (AID 1963877); also: nearly all actives have a fitted effect of over 30% in size; also: potency is read from the fitted curve at half-maximal effect;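 as to Viability: 100% = DMSO control wells and 0% = empty wells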
Summary of the method: (§1)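 Each medium arm—HPLM with 10% dialyzed FBS, or RPMI1640 with 5 mM glucose and 10% untreated or dialyzed FBS—was screened against an 11-point, 3-fold compound titration for 48 h at 37 °C, with CellTiter-Glo luminescence as endpoint.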

[6] = Quantitative highthroughput screen to assess conditional lethalithy of P12 Ichikawa cells grown in RPMI1640 with dialyzed fetal bovine serum (RPMI+ds) (AID 1963880); conditions: Potency: P12-Ichikawa viability; also: nearly all actives have a fitted effect of over 35% in size; also: potency is read from the fitted curve at half-maximal effect;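 as to Viability: 100% = DMSO wells and 0% = empty wells on each plate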
Summary of the method: as §1

[7] = Quantitative highthroughput screen to assess conditional lethalithy of SEM cells grown in Human Plasma-Like Medium with dialyzed fetal bovine serum (HPLM+ds) (AID 1963882); also: nearly all actives have a fitted effect of over 35% in size; also: potency is read from the fitted curve at half-maximal effect
Summary of the method: as §1

[8] = Quantitative highthroughput screen to assess conditional lethalithy of NOMO1 cells grown in RPMI1640 with untreated serum (RPMI+s) (AID 1963876); conditions: NOMO1 AML cells in RPMI+serum, CellTiter-Glo viability, 48 h; viability: at 45.8 µM (top of the series); also: potency is read from the fitted curve at half-maximal effect; nearly all actives have a fitted effect of over 35% in size
Summary of the method: as §1

[9] = Quantitative highthroughput screen to assess conditional lethalithy of NOMO1 cells grown in Human Plasma-Like Medium with dialyzed fetal bovine serum (HPLM+ds) (AID 1963878); conditions: NOMO1 AML cells in HPLM+ds, CellTiter-Glo viability, 48 h; viability: at 45.8 µM (top of the series)
Summary of the method: as §1

[10] = Quantitative highthroughput screen to assess conditional lethalithy of P12 Ichikawa cells grown in Human Plasma-Like Medium with dialyzed fetal bovine serum (HPLM+ds) (AID 1963879); conditions: Potency: viability
Summary of the method: as §1

[11] = Quantitative highthroughput screen to assess conditional lethalithy of SEM cells grown in RPMI1640 with unreated serum (RPMI+s) (AID 1963883); conditions: SEM B-ALL cells, CellTiter-Glo viability, 48 h; viability: at 45.8 µM (top of the series); also: nearly all actives have a fitted effect of over 35% in size; also: potency is read from the fitted curve at half-maximal effect;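 as to Viability: 100% = DMSO wells and 0% = empty wells without cells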
Summary of the method: as §1

[12] = Quantitative highthroughput screen to assess conditional lethalithy of SEM cells grown in RPMI1640 with dialyzed fetal bovine serum (RPMI+ds) (AID 1963884); conditions: SEM B-ALL cells, RPMI+dialyzed FBS, CellTiter-Glo viability, 48 h; viability: at 45.8 µM (top of the series)
Summary of the method: as §1

[13] = Cellular viability qHTS for adrenocortical cancer (ACC) cell line SW-13 (AID 1963989); conditions: SW-13 ACC cells viability, CellTiter-Glo, 48 h; activity (max response): active compounds read low; also: nearly all actives have a fitted effect of over 65% in size; also: potency is read from the fitted curve at half-maximal effect;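 as to activity (max response): cells grown in serum-free medium with ITS supplement; % is scaled to controls: 0 for no effect and ±100 for the full control effect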
Summary of the method: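 Luminescent ATP read-out (CellTiter-Glo, 20 min at room temperature) measured metabolically competent SW-13 cells after 48 h compound treatment. Final concentrations spanned up to 46 uM; bortezomib served as positive control.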

[14] = Quantitative highthroughput screen to assess conditional lethalithy of P12 Ichikawa cells grown in RPMI1640 with untreated serum (RPMI+s) (AID 1963881); conditions: Potency: viability
Summary of the method: as §1
Tags tell the direction and shape of the fitted curve.

For `CCC1C(=O)OCC1Cc1cncn1C` (configuration not stated), the Potency [1] was inconclusive: 19.5 µM [inhibitor, single point], the Potency [2] was “inactive” and the Potency [3] was “inactive”. For the same molecule, the Potency [4] was “inactive”.
In the case of `CCc1c2c(nc3ccc(OC(=O)N4CCC(N5CCCCC5)CC4)cc13)-c1cc3c(c(=O)n1C2)COC(=O)[C@]3(O)CC`, the Potency [1] is reported as inconclusive: 24.5 µM [inhibitor, partial curve, poor fit], the Potency [2] is reported as active: 2.99 µM and active: 263 nM and the Potency [5] is reported as inconclusive: 2.35 µM [cytotoxic, full curve]. For the same molecule, the Potency [6] was active: 1.18 µM, the Potency [7] was active: 2.35 µM and the Potency [4] was inconclusive: 9.2 µM [cytotoxic, partial curve] and inconclusive: 12.6 µM [cytotoxic, partial curve, poor fit].
With `Cc1cc(C(C)(C)C)c(O)c(C)c1CC1=NCCN1` the Potency [1] was inconclusive: 0.389 µM [inhibitor, full curve], the Potency [2] was “inactive” and the Potency [8] was inconclusive: 10.5 µM [cytotoxic, partial curve]. The Potency [5] was inconclusive: 11.8 µM [cytotoxic, full curve], the Potency [9] was inconclusive: 9.35 µM [cytotoxic, partial curve] and the Potency [10] was active: 8.33 µM. The Potency [6] was inconclusive: 10.5 µM [cytotoxic, full curve], the Potency [7] was inconclusive: 4.18 µM [cytotoxic, full curve, poor fit] and the Potency [11] was inconclusive: 2.96 µM [cytotoxic, full curve]. For the same molecule, the Potency [12] was inconclusive: 5.26 µM [cytotoxic, full curve] and the Potency [4] was “inactive”.
For `Cc1ccnc2c1NC(=O)c1cccnc1N2C1CC1`, the Potency [1] was inconclusive: 38.9 µM [inhibitor, single point], the Potency [2] was inconclusive: 0.0008 µM and the Potency [8] was inconclusive: 1.66 µM [cytotoxic, full curve]. The Potency [5] was active: 2.09 µM, the Potency [9] was inconclusive: 2.64 µM [cytotoxic, full curve] and the Potency [6] was “inactive”. For the same molecule, the Potency [7] was “inactive”.
For `O=C(OC1C[C@H]2CC[C@@H](C1)[N+]21CCCC1)C(O)(c1ccccc1)c1ccccc1` (some centres not stated), the Potency [1] was “inactive”, the Potency [2] was “inactive” and the Potency [5] was “inactive”. For the same molecule, the Potency [11] was “inactive”.
For `CCC(=O)O[C@H]1[C@H](O[C@@H]2[C@@H](C)[C@H](O[C@H]3C[C@@](C)(OC)[C@@H](O)[C@H](C)O3)[C@@H](C)C(=O)O[C@H](CC)[C@@](C)(O)[C@H](O)[C@@H](C)C(=O)[C@H](C)C[C@@]2(C)O)O[C@H](C)C[C@@H]1N(C)C`, the Potency [1] was inconclusive: 21.9 µM [inhibitor, partial curve], the Potency [2] was “inactive” and the Potency [3] was “inactive”. The activity (max response) [13] was inactive: 0.809% and the Potency [4] was inconclusive: 1.03 µM [cytotoxic, full curve, poor fit].
For `O=C(O)CN(CCOCCOCCN(CC(=O)O)CC(=O)O)CC(=O)O`, the activity change, negative = inhibition [1] was inactive: 3.38% [at 0.91 µM], the viability (% of control) [2] was inactive: 65.2% [at 0.588 µM] and the viability, % of control [3] was inactive: 96.9% [at 0.588 µM]. For the same molecule, the activity change, negative = viability loss [4] was inactive: -8.55% [at 0.587 µM].
For `CCN(CC)CCOC(=O)c1ccc(N)cc1`, the Potency [1] was inconclusive: 19.5 µM [inhibitor, single point], the Potency [2] was “inactive” and the Potency [3] was “inactive”. The Potency [4] was “inactive”.
With `COc1cc(C(=O)N2CCOCC2)cc(OC)c1OC` the Potency [1] was “inactive”, the Potency [2] was “inactive” and the Potency [3] was inconclusive: 0.0944 µM [cytotoxic, single point]. For the same molecule, the Potency [4] was “inactive”.
For `O=C(O)c1ccccc1Nc1cc(Cl)ccc1C(=O)O`, the Potency [1] was “inactive”, the Potency [2] was inconclusive: 8.2 µM [cytotoxic, partial curve, poor fit] and the Potency [3] was “inactive”. The Potency [4] was inconclusive: 10 µM [cytotoxic, single point].
With `C[C@@H]1CN(Cc2ccc(F)cc2)[C@@H](C)CN1C(=O)c1cc2c(C(=O)C(=O)N(C)C)cn(C)c2cc1Cl` the Potency [1] was inconclusive: 21.3 µM [inhibitor, partial curve], the Potency [2] was inconclusive: 20.6 µM [cytotoxic, partial curve] and the Potency [5] was “inactive”. The Potency [9] was inconclusive: 33.2 µM [cytotoxic, single point], the Potency [6] was “inactive” and the Potency [11] was inconclusive: 16.6 µM [cytotoxic, partial curve, poor fit]. For the same molecule, the Potency [12] was inconclusive: 20.9 µM [cytotoxic, single point] and the Potency [13] was inconclusive: 35.5 µM [cytotoxic, single point].
For `C[C@@H](NC(=O)c1ncnc(N)c1Cl)c1ncc(C(=O)Nc2cc(C(F)(F)F)c(Cl)cn2)s1`, the Potency [1] was inconclusive: 26.8 µM [inhibitor, single point], the Potency [2] was active: 9.2 µM and the Potency [5] was “inactive”. For the same molecule, the Potency [9] was active: 16.6 µM, the Potency [14] was “inactive” and the Potency [11] was “inactive”. The Potency [4] was inconclusive: 25.1 µM [cytotoxic, single point].
With `CC[N+](CC)(CCNC(=O)C(=O)NCC[N+](CC)(CC)Cc1ccccc1Cl)Cc1ccccc1Cl` the Potency [1] was inconclusive: 13.8 µM [inhibitor, partial curve, poor fit], the Potency [2] was inconclusive: 9.44 µM [cytotoxic, partial curve, poor fit] and the Potency [3] was inconclusive: 26.6 µM [cytotoxic, single point]. The Potency [4] was “inactive”.
